Reference: PubChem BioAssay AID1508623 (National Center for Advancing Translational Sciences (NCATS), 2021)
In all, about 48,000 compounds went through this assay and about 450 (0.94%) were called active. Another 19% or so got no clear call; they are omitted. Calls follow the shape of the dose curve; as a rule, active = well fitted inhibition curve with a large enough effect; inconclusive = small, poorly fitted or top-dose-only effect; inactive = no such curve, though single readings can be large or run the other way. The list shows a part of the results.

Assay: Primary qHTS for Identification of Small Molecule Inhibitors of Huntingtin Promoter Activity; also: nearly all actives have a fitted effect of over 50% in size
Settings: HEK293 HTT promoter firefly luciferase reporter (activity 0% = vehicle and -100% = no light), 24 h; series mostly up to 57.5 µM; activity change, negative = inhibition: at the top concentration
Summary of the method: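 HEK293 cells carrying firefly luciferase reporters were seeded at 2,500 per well in Opti-MEM and cultured for 24 h. They were then treated with compounds at up to 57.5 uM final for 24 h at 37 degrees C before Dual-Glo luminescence readout.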
Potency is read from the fitted curve at half-maximal effect.

Row | Structure (SMILES) | activity change, negative = inhibition | Potency
1 | COc1ccc(NC(=O)Cn2c(C)cc3ccccc3c2=O)c(OC)c1 | inactive: 7.35% | –
2 | Cc1nn(-c2nc(-c3ccc(F)cc3)cc(C(F)(F)F)n2)c(C)c1Br | inactive: -20.1% | –
3 | COC(=O)c1cc(C)nc2c1c(=O)nc(SCc1cccc(C)c1)n2C1CC1 | inactive: -8.48% | –
4 | CCOc1ccc(CNC(=O)CCS(=O)(=O)c2cc3c(cc2Cl)NC(=O)CO3)cc1OC | inactive: 9.3% | –
5 | CCOC(=O)c1ccccc1NC(=O)Nc1cc2c(cc1N1CCCCC1)n(C)c(=O)n2C | inactive: -6.16% | –
6 | O=C(Nc1ccc(N2CCC(c3ccccc3)C2)c(C(=O)O)c1)c1ccc(Cl)cc1 (stereo unspecified) | inactive: -21.8% | –
7 | COc1cccc(NC(=O)CCc2c(C)nc3c4cccnc4nn3c2C)c1 | inactive: -20.7% | –
8 | CCOc1ccc(Oc2nc(NCC(C)C)nc(NC(C)(C)C)n2)nn1 | inactive: 7.22% | –
9 | COc1ccccc1OCC(=O)N(Cc1ccc(Cl)cc1)CC1CCCO1 (stereo unspecified) | inactive: -11.4% | –
10 | CCc1cccc(CC)c1NC(=O)c1ccc2c(c1)CCN2S(=O)(=O)c1ccccc1 | inactive: -25.7% | –
11 | Cc1cccc(NC(=O)CN2C(=O)c3cccnc3Oc3ccc(Cl)cc32)c1C | inactive: -9.19% | –
12 | CSc1ccc(CCNC(=O)CCCn2nc(C)c3sc4ccccc4c3c2=O)cc1 | inactive: 10.8% | –
13 | COCCCNc1ncnc2onc(-c3ccc(F)cc3)c12 | inactive: -16.5% | –
14 | COCCCNC(=O)CN1C(=O)COc2ccc(S(=O)(=O)N3CCCC3)cc21 | inactive: -7.68% | –
15 | Cc1n[nH]c(C)c1S(=O)(=O)N(CC(=O)NC(C)c1ccccc1)c1ccc(C(C)C)cc1 (stereo unspecified) | inactive: -18% | –
16 | COc1cccc(NC(=O)Cn2cnc3c(nc4n3CCCCC4)c2=O)c1 | inactive: -11.5% [at 11.5 µM] | –
17 | CS(=O)(=O)N1CCc2cc(C(=O)NCCc3ccccc3)ccc21 | inactive: 47.4% | –
18 | Cc1ccc(-c2cc(C(=O)N3CCN(S(=O)(=O)c4ccc(Br)cc4)CC3)[nH]n2)cc1C | inactive: 6.69% | –
19 | CCC(=O)NCC(c1ccc2c(c1)OCO2)N1CCN(c2ccccc2)CC1 (stereo unspecified) | inactive: -9.23% | –
20 | Cc1nc2ccccc2c(=O)n1-c1ccc(NC(=O)c2ccc([N+](=O)[O-])cc2)cc1 | inactive: -15.8% | –
21 | COc1ccc(N2CCN(C(=O)CCc3c(C)nc4cc(-c5ccc(Cl)cc5)nn4c3C)CC2)cc1 | – | active: 0.316 µM

Row | Structure (SMILES) | activity change, negative = inhibition | Potency
22 | COc1ccc(-c2[nH]nc3nc(-c4cc(OC)c(OC)c(OC)c4)cc(C(=O)O)c23)cc1 | inactive: 0.506% | –
23 | Cc1ccccc1CNC(=O)C(=O)NCC(c1ccco1)S(=O)(=O)c1ccccc1 (stereo unspecified) | inactive: -14.7% | –
24 | COc1ccc(C(=O)Nc2nnc(S(=O)(=O)N(C)c3ccc(Cl)cc3)s2)cc1OC | inactive: -15% | –
25 | Cc1ccc(CCNC(=O)c2cn(C)c3ccc(S(=O)(=O)N4CCCCC4)cc3c2=O)cc1 | inactive: -4.21% | –
26 | CCCS(=O)(=O)N1CCCC(C(=O)NCCCOC)C1 (stereo unspecified) | inactive: -12.1% | –
27 | CCc1cccc(NC(=O)CCS(=O)(=O)c2cc(Br)cc3c2N(C(C)=O)CC3)c1 | inactive: -1.43% | –
28 | O=C(NCc1ccccc1Cl)c1cc2ccccc2o1 | inactive: 4.54% | –
29 | O=C(CSc1nc2ccccc2nc1Cc1ccccc1)N1CCCCC1 | inactive: -24.9% | –
30 | COc1cc(-c2nc3ncccn3c2Nc2ccc(C)cc2C)ccc1O | inactive: 6.49% | –
31 | CCOc1ccccc1NC(=O)N1CCN(Cc2nc3ccc(C)cc3o2)CC1 | inactive: -17.9% | –
32 | CCCCOc1cccc(C(=O)Nc2ccc3oc(-c4cccnc4)nc3c2)c1 | inactive: -4.97% | –
33 | Cc1cc(C)cc(-n2c(SCC(N)=O)nc3c(oc4ccccc43)c2=O)c1 | inactive: -20.3% | –
34 | COc1cccc(Nc2c3c(nc4nncn24)CCC3)c1 | inactive: -16.8% | –
35 | CCOc1ccccc1NC(=O)Cn1cnc2sc(C)c(S(=O)(=O)N3CCC(C)CC3)c2c1=O | inactive: -12.2% | –
36 | Cc1ccc(-n2ncc(C(=O)Nc3ccc4c(c3)OCO4)c2C2CCN(C(=O)OC(C)(C)C)CC2)cc1 | inactive: -9.25% | –
37 | Cc1ccnc(NS(=O)(=O)c2cc(-c3cc(C)no3)ccc2C)c1 | inactive: -20.8% | –
38 | CCc1ccc(N(CC)C(=O)Cn2c(=O)oc3ccccc32)cc1 | inactive: -20.4% | –
39 | Cc1nn(S(=O)(=O)c2ccc(F)cc2)c(C)c1S(=O)(=O)N1CCC(C)CC1 | inactive: -8.31% | –
40 | COc1cccc2cc(C(=O)NCCc3c(C)[nH]c4ccc(Br)cc34)c(=O)oc12 | inactive: -11% | –
41 | CCOC(=O)c1cc2c(=O)n3ccccc3nc2n(CC(C)C)c1=NC(=O)c1cc2ccccc2o1 | inactive: -15.3% | –
42 | Cc1ccc(S(=O)(=O)c2cn(Cc3ccc(F)cc3)c3cc(F)c(F)cc3c2=O)cc1 | inactive: -12.5% | –

Row | Structure (SMILES) | activity change, negative = inhibition | Potency
43 | CCOCCn1ccc2c(OCC(=O)Nc3ccc(OC(F)(F)F)cc3)cccc2c1=O | inactive: 0% | –
44 | CC(=O)c1cccc(NC(=O)CCS(=O)(=O)c2ccc(Br)s2)c1 | inactive: -5.09% | –
45 | CC(C)(C)NC(=O)c1cnn2c(C(F)F)cc(-c3ccccc3)nc12 | inactive: -2.33% | –
46 | CCN(C(=O)Cn1c(=O)oc2cc(Cl)ccc21)c1cccc(C(F)(F)F)c1 | inactive: -15.9% | –
47 | COc1ccc(/C=C/C(=O)Nc2nc3n(n2)C(c2ccccc2)C=C(c2ccccc2)N3)cc1 (stereo unspecified) | inactive: -31.5% | –
48 | Cc1ccc(-c2cnc(NCc3ccc(C(F)(F)F)cc3)n2C)cc1 | inactive: -10.7% | –
49 | COCCCNC(=O)c1cc(-c2cccnc2)nc2ccc(S(=O)(=O)N3CCC(C)CC3)cc12 | inactive: -3.48% | –
50 | CN1C(=O)C2(c3ccccc31)N(c1cccc(F)c1)C(=O)CS2(=O)=O (stereo unspecified) | inactive: 19.8% | –
51 | COc1ccc(Cl)cc1NC(=O)c1c(NCc2sccc2C)sc2c1CCCC2 | inactive: -4.85% | –
52 | Clc1ccccc1CNc1nc2ccccc2c2nc(-c3cccnc3)nn12 | inactive: -3.58% | –
53 | O=C(Cn1nnc(-c2ccc(Cl)cc2)n1)NCc1ccc(F)cc1 | inactive: -10.9% | –
54 | COc1ccc(OC)c(CNS(=O)(=O)c2c(C(=O)N3CCCCCC3)c(C)n(C)c2C)c1 | inactive: 9.1% | –
55 | COc1ccccc1N1CCN(C(=O)CCNS(=O)(=O)c2ccc3c(c2)CCN3C(=O)C2CC2)CC1 | inactive: -19.2% | –
56 | Cc1ccc(NC(=O)c2cnc(SCC(=O)Nc3cc(C)on3)n(C)c2=O)cc1 | inactive: -12.5% | –
57 | COc1ccc(Cl)cc1NC(=O)CSC1=Nc2ccccc2C2=NC(CC(=O)NCc3ccc4c(c3)OCO4)C(=O)N12 (stereo unspecified) | inactive: -23.2% | –
58 | Cc1ccc(CNC(=O)Cn2cc(S(=O)(=O)Cc3ccccc3F)c3ccccc32)cc1 | inactive: -17.7% | –
59 | C=CCc1ccccc1OCC(O)CN1CCN(c2ccccc2)CC1 (stereo unspecified) | inactive: -2.82% | –
60 | COc1ccccc1C(=O)Nc1ccc2c(c1)nc(CN1CCCCC1)n2C | inactive: -2.61% | –
61 | CCOC(=O)c1ccc(NC(=O)CC2C(=O)N(c3cccc(OC)c3)C(=O)N2Cc2ccc(OC)cc2)cc1 (stereo unspecified) | inactive: -17.4% | –
